Test results taken from publication PMC6727365.
No constants are given. Whether binding was seen depends on the method and setting. Binding seen in cells or lysates may run through a third protein. Some binding calls cover weakened binding; strength is not graded here. For part of these data: Tags and fused reporters may be left off the sequences shown. Each block holds one binder with its values, some of them ahead of it.

Legend:
[1] = target: EPS8 (endogenous, SK-OV3 cells) (human (endogenous in SK-OV3)) (UniProt Q12929); test: pull-down; competition: synthetic peptide (10 μM) added to LPA-stimulated SK-OV3 cell lysate 1 h before GST-ABI1 beads; the peptide meets the protein in the lysate; only the binder purified
[2] = target: SOS1 (endogenous, SK-OV3 cells) (human (endogenous in SK-OV3)) (UniProt Q07889); test: as above
[3] = target: T1, Myc-tagged EPS8 (human), Q12929; test: co-IP; OVCAR3 cells (no ABI1 expression) co-transfected with tagged constructs (HA-ABI1 or its regions, Flag-SOS1 or its region, Myc-EPS8 or its region); 12 h starvation, 20 μM LPA; lysates; details: remark: other sources report otherwise
T1 chain: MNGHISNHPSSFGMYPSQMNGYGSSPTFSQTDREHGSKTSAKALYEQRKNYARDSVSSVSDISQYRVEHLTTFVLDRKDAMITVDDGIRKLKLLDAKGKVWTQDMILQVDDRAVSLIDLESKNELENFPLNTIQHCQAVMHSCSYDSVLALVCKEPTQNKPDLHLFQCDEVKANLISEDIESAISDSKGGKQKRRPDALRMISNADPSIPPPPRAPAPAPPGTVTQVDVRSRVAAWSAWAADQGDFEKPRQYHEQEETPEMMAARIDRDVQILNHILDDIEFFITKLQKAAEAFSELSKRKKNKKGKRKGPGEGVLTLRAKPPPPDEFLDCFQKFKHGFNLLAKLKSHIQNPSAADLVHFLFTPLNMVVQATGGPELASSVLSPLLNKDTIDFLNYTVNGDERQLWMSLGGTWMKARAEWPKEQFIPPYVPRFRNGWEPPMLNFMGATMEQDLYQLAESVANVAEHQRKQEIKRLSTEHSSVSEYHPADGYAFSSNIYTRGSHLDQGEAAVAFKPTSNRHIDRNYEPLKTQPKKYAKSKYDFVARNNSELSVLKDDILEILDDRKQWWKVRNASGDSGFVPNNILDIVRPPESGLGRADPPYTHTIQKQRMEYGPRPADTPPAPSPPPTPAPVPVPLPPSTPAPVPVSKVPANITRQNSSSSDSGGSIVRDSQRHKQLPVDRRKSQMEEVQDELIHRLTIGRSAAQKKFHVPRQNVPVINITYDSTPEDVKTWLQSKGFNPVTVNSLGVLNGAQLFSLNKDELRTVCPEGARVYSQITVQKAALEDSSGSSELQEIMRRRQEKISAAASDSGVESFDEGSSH

- binding [1]: binds
Binder: PPPPPPPPVDYEDEE [inhibitory short peptide p + p-8]

- binding [2]: binds
Binder: EKVVAIYDYTKDKDDELSFMEGAII [inhibitory short peptide SH3-3]

- binding [3]: no binding
B1: Flag-tagged SOS1, Q07889 1-1333 (protein)
chain: MQAQQLPYEFFSEENAPKWRGLLVPALKKVQGQVHPTLESNDDALQYVEELILQLLNMLCQAQPRSASDVEERVQKSFPHPIDKWAIADAQSAIEKRKRRNPLSLPVEKIHPLLKEVLGYKIDHQVSVYIVAVLEYISADILKLVGNYVRNIRHYEITKQDIKVAMCADKVLMDMFHQDVEDINILSLTDEEPSTSGEQTYYDLVKAFMAEIRQYIRELNLIIKVFREPFVSNSKLFSANDVENIFSRIVDIHELSVKLLGHIEDTVEMTDEGSPHPLVGSCFEDLAEELAFDPYESYARDILRPGFHDRFLSQLSKPGAALYLQSIGEGFKEAVQYVLPRLLLAPVYHCLHYFELLKQLEEKSEDQEDKECLKQAITALLNVQSGMEKICSKSLAKRRLSESACRFYSQQMKGKQLAIKKMNEIQKNIDGWEGKDIGQCCNEFIMEGTLTRVGAKHERHIFLFDGLMICCKSNHGQPRLPGASNAEYRLKEKFFMRKVQINDKDDTNEYKHAFEIILKDENSVIFSAKSAEEKNNWMAALISLQYRSTLERMLDVTMLQEEKEEQMRLPSADVYRFAEPDSEENIIFEENMQPKAGIPIIKAGTVIKLIERLTYHMYADPNFVRTFLTTYRSFCKPQELLSLIIERFEIPEPEPTEADRIAIENGDQPLSAELKRFRKEYIQPVQLRVLNVCRHWVEHHFYDFERDAYLLQRMEEFIGTVRGKAMKKWVESITKIIQRKKIARDNGPGHNITFQSSPPTVEWHISRPGHIETFDLLTLHPIEIARQLTLLESDLYRAVQPSELVGSVWTKEDKEINSPNLLKMIRHTTNLTLWFEKCIVETENLEERVAVVSRIIEILQVFQELNNFNGVLEVVSAMNSSPVYRLDHTFEQIPSRQKKILEEAHELSEDHYKKYLAKLRSINPPCVPFFGIYLTNILKTEEGNPEVLKRHGKELINFSKRRKVAEITGEIQQYQNQPYCLRVESDIKRFFENLNPMGNSMEKEFTDYLFNKSLEIEPRNPKPLPRFPKKYSYPLKSPGVRPSNPRPGTMRHPTPLQQEPRKISYSRIPESETESTASAPNSPRTPLTPPPASGASSTTDVCSVFDSDHSSPFHSSNDTVFIQVTLPHGPRSASVSSISLTKGTDEVPVPPPVPPRRRPESAPAESSPSKIMSKHLDSPPAIPPRQPTSKAYSPRYSISDRTSISDPPESPPLLPPREPVRTPDVFSSSPLHLQPPPLGKKSDHGNAFFPNSPSPFTPPPPQTPSPHGTRRHLPSPPLTQEVDLHSIAGPPVPPRQSTSQHIPKLPPKTYKREHTHPSMHRDGPPLLENAHSS
